Data reported in PubChem BioAssay AID488969 (Vanderbilt High Throughput Screening Facility, 2010).
Whole data set: some 110,000 compounds, median “z-score” near -0.1, cut for the highest 2% near 2. The list shows a part of the results.

Biological target: Metabotropic glutamate receptor 8 (Rattus norvegicus) (UniProt P70579)
Assay: rat mGluR8 modulators via GIRK flux, primary screen, cell-based, thallium flux, HTS (AID 488969)
Settings: HEK293 rat mGluR8, GIRK (G protein-gated inwardly rectifying potassium channel) thallium flux, FluoZin2; at 10 µM; stronger effect = higher value; submaximal glutamate (EC20) added with thallium

Chain of UniProt P70579 (P70579 whole entry, looked up): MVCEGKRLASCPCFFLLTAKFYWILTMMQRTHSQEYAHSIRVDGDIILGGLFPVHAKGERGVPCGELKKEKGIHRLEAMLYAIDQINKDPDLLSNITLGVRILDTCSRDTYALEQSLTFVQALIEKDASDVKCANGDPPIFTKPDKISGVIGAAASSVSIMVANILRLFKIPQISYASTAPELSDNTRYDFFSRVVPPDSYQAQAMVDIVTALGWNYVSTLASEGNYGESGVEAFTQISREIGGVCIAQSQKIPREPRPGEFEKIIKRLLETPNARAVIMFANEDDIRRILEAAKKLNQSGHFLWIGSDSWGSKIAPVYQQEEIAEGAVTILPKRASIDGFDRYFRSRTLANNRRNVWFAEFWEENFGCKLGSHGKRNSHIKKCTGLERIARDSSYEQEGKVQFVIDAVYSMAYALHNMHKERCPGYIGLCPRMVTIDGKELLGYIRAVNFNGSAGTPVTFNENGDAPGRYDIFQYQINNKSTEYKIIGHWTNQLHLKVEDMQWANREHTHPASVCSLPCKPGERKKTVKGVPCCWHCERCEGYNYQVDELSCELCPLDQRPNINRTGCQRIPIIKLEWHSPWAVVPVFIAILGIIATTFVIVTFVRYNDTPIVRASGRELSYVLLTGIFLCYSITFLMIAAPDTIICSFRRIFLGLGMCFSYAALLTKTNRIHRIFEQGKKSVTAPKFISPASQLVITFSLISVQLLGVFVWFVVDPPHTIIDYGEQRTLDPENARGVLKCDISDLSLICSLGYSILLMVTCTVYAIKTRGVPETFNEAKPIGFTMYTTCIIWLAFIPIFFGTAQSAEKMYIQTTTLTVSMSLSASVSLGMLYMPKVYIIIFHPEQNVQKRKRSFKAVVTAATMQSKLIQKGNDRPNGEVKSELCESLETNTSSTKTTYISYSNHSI

| SMILES | z-score |
| --- | --- |
| CCN(C(=O)c1ccc(NC(C)=O)cc1)c1ccccc1 | 0.0781 |
| O=C(NC1=NCCS1)c1nc(-c2ccccc2)n(-c2ccccc2)n1 | -0.225 |
| COc1cccc(CNC(=O)c2cnc(-c3ccccn3)nc2C(F)(F)F)c1 | -0.219 |
| COc1cccc(C2=NOC(C(=O)N3CCN(c4ccccc4)CC3)C2)c1OC (stereo unspecified) | 0.541 |
| Cn1c(SCC(=O)Nc2ccc3nc(SCC(=O)N4CCCC4)sc3c2)nnc1-c1ccccc1 | -0.619 |
| COc1ccc(NC(=O)CNCCC2=CCCCC2)cc1 | -0.335 |
| COC(=O)c1sccc1NC(=O)c1cc(-c2cc(C)ccc2C)nc2ccccc12 | -0.139 |
| C/C(=N\NC(=O)Cc1cccn1C)c1ccc2ccccc2c1 | -0.1 |
| COc1cc(/C=C2\SC(=S)N(Nc3ncc(C(F)(F)F)cc3Cl)C2=O)cc(OC)c1OC | 0.253 |
| CCOC(=O)C(NC(=O)c1ccccc1)=C(C)C | -0.106 |
| COc1ccc(-c2nnc(N3CCC(C)CC3)c3ccccc23)cc1 | -0.528 |
| COCCNc1nc2c(c(=O)n(C)c(=O)n2C)n1Cc1cccc(C)c1 | -0.0465 |
| COc1ccc(S(=O)(=O)Nc2ccc(S(=O)(=O)N3CCCCC3)cc2)cc1OC | -0.502 |
| COc1cc(OC)cc(C(=O)N2CCN(S(C)(=O)=O)CC2)c1 | 0.315 |
| CCCOc1ccc(S(=O)(=O)NCCCN2CCOCC2)c2ccccc12 | 0.408 |
| COC(=O)Sc1nnc(-c2ccc(Br)cc2)o1 | -0.575 |
| Cc1cnc(NC(=O)C(C)N2C(=O)C3CC=CCC3C2=O)s1 (stereo unspecified) | 0.0125 |
| COc1cc(C2c3c(n[nH]c3C)C(=O)N2c2ccc(Br)cc2)ccc1O (stereo unspecified) | -1.36 |
| CCSCCOC(=O)C1=C(C)NC(=O)NC1c1cccc(OC)c1OC (stereo unspecified) | -0.111 |
| CCCCCCC1CCC(C(=O)NC(CCSC)C(=O)NC(C(=O)OC)C(C)C)CC1 (stereo unspecified) | 0.478 |
| Cc1ccc(C)c(NC(=O)/C(C#N)=C/c2ccc(Sc3nncn3C)c([N+](=O)[O-])c2)c1 | -0.0512 |
| CC1CCN(C(=O)c2ccc(S(=O)(=O)Cc3ccccc3F)c([N+](=O)[O-])c2)CC1 | -0.14 |
| Cc1ccc(S(=O)(=O)N2CCN(S(=O)(=O)N3CCCCC3)CC2)c(C)c1 | 0.206 |

| SMILES | z-score |
| --- | --- |
| CSCCC(C(=O)NCc1cccs1)N1C(=O)c2ccccc2C1=O (stereo unspecified) | -0.0636 |
| O=C(Nc1ccncc1)c1cc2ccccc2o1 | 0.226 |
| Cc1ccc(S(=O)(=O)n2nc(-c3ccc(Cl)cc3)nc2NCc2ccco2)cc1 | -0.393 |
| CCCOc1ccccc1NC(=O)/C=C/C(N)=O | -0.22 |
| O=C(/C(=C/O)N=Nc1ccccc1)c1ccncc1 | -0.489 |
| CCSc1nnc2c(n1)OC(C)(C)Nc1ccccc1-2 | 0.207 |
| CCOc1cc(CNc2ccc(O)cc2)cc(Br)c1OCc1ccccc1F | -0.0546 |
| Cc1nc2cc(NC(=O)N3CCN(c4ccccn4)CC3)ccc2o1 | -0.0397 |
| Cc1cc(-c2ccccc2)c2c(=O)[nH][nH]c2n1 | 0.00889 |
| COc1ccc(OC)c(-c2cc(C(=O)N3CCc4ccccc4C3)no2)c1 | 0.245 |
| C/C(=N\NC(=O)c1cc(C2CC2)nc2ccccc12)c1ccc(C)s1 | -0.135 |
| CCCC(=O)OCCNc1cc(Sc2nc3ccccc3[nH]2)c2nonc2c1[N+](=O)[O-] | -0.682 |
| Cc1ccc(S(=O)(=O)NC2=NCN(CCOC(=O)c3ccccc3)CN2)cc1 | 0.00239 |
| O=S1(=O)CC=C(CSc2nc3ccccc3[nH]2)C1 | 0.118 |
| Fc1cccc2sc(N3CCOCC3)nc12 | 0.0378 |
| CC1=CC(C)(C)N(C(=O)C(C)N2C(=O)c3ccccc3C2=O)c2ccc(C)cc21 (stereo unspecified) | 0.526 |
| Cc1cc(Cl)ccc1NC(=O)CSc1nnc(-c2ccncc2)n1Cc1ccco1 | 0.234 |
| Nc1cc(=O)nc(SCC(=O)NCc2ccccc2)n1CCc1ccccc1 | 0.182 |
| O=C(NCCCN1CCCCC1)C1(S(=O)(=O)c2ccc(Cl)cc2)CC1 | 0.105 |
| CCOc1cc(N2CCOCC2)c(OCC)cc1NC(=O)Cc1ccccc1OC | -0.332 |
| O=C(CSc1ncn[nH]1)Nc1nnc(-c2ccccc2)s1 | 0.104 |
| CC1CCc2ccccc2N1C(=O)c1cccs1 (stereo unspecified) | -0.415 |
| COc1cc(N2CCCC2)c(OC)cc1/C=C(/C#N)c1cccc(F)c1 | -0.301 |

| SMILES | z-score |
| --- | --- |
| Cc1c(Cl)cccc1NC(=O)CN1C(=O)CSc2ncccc21 | -0.338 |
| Cc1cccc(C(=O)Nc2nnc(SCC(=O)Nc3ccc4c(c3)oc3ccccc34)s2)c1 | -0.242 |
| Cc1nc(NC(=S)NC(=O)c2ccccc2)sc1C(=O)N(C)C | -0.185 |
| CCOc1ccccc1NC(=O)Cc1coc2cc(C)ccc12 | -0.0727 |
| O=C(Cn1nnc(-c2ccncc2)n1)NCCc1ccccc1 | 0.333 |
| CCn1c(SCC(=O)Nc2nccs2)nnc1-c1ccc(S(=O)(=O)N2CCCCCC2)cc1 | -0.515 |
| O=C(c1cc(C2CC2)nc2ccccc12)N1N=C(C(F)F)CC1(O)C(F)F (stereo unspecified) | -0.303 |
| Cc1ccc(C2C(C(=O)c3sc(-c4ccccc4)nc3C)=C(O)C(=O)N2CCN(C)C)o1 (stereo unspecified) | -0.493 |
| CC(C)N(C(=O)CSc1nc2ccccc2n1-c1ccccc1)C(C)C | -0.488 |
| CCCS(=O)(=O)N1CCCC(C(=O)NC2CCCC(C)C2C)C1 (stereo unspecified) | -0.429 |
| C/C(CC(=O)Nc1ccccn1)=N\NC(=O)C(=O)Nc1cccc(C)c1 | 0.00246 |
| CCNC(=S)NCCN1CCOCC1 | -0.386 |
| Cc1nnc(NC(=O)CSc2nnnn2Cc2ccccc2)s1 | -0.0623 |
| CCCOc1ccc(NC(N)=O)cc1OCCC | 0.631 |
| CCOc1c2ccc(C(=O)NCc3ccc(OC(F)(F)F)cc3)cc2nn1C | -0.395 |
| Cc1ccc(N(CC(=O)NCC2CCCO2)C(=O)CCC(=O)Nc2ccccn2)cc1C (stereo unspecified) | -0.0898 |
| Cc1ccc(C(=O)Nc2ccc(C)c(S(=O)(=O)N(C)C)c2)s1 | -0.318 |
| COc1cccc(-c2cc(C(F)(F)F)nc(-n3cccn3)n2)c1 | -0.245 |
| Cc1ccc(C23CC4CC(CC(NC(=O)N5CCN(C)CC5)(C4)C2)C3)cc1 | 0.361 |
| Cc1cc(C)n2[nH]c(=O)c(N=Nc3ccccc3)c2n1 | -0.498 |
| COc1cccc(CC(=O)n2nc(N)c3cc4ccc(OC)cc4nc32)c1 | -0.18 |
| Cc1c(Cl)cnc(NC(=O)COC(=O)CCc2nc3ccccc3s2)c1Cl | -0.159 |
| Cc1ccc(C2N(c3ccc(Cl)c(Cl)c3)C(=O)C3CCCN32)o1 (stereo unspecified) | -0.238 |

| SMILES | z-score |
| --- | --- |
| CN(C)c1ccnc(Oc2ccc(C(C)(C)C)cc2)c1C#N | -0.212 |
| CC(=O)C1=NN(c2ccccc2)C(c2cccs2)N1c1ccccc1 (stereo unspecified) | -0.909 |
| CCCCc1c(O)nc(SCC(=O)N2CCCCC2)n(-c2ccccc2C)c1=O | -0.736 |
| CC(C)(C)C(=O)NC(=C(Cl)Cl)P(=O)(O)O | -0.239 |
| COc1ccc(CNC(=O)C2CSC(=O)C2)cc1 (stereo unspecified) | -0.333 |
| C=CCN1C(=O)CSc2ccc(C(=O)NCCC3=CCCCC3)cc21 | -0.609 |
| CCCCCCCCCC(=O)N/N=C/c1ccc(C)s1 | -0.109 |
| CCC(CC)C(=O)Nc1cc(C(=O)NCCc2ccccc2)ccc1Cl | 0.201 |
| Cc1ccc(-c2nn(-c3ccccc3)cc2/C=N/NS(=O)(=O)c2ccccc2)cc1 | -0.324 |
| CC(=O)NC(=O)NC1CSCC1OC(C)=O (stereo unspecified) | 0.477 |
| Cc1c(C(c2cc3c(cc2Br)OCO3)c2c(C)n(C)n(-c3ccccc3)c2=O)c(=O)n(-c2ccccc2)n1C | -0.323 |
| COc1ccc(C(CC(=O)O)NC(=O)OC(C)(C)C)cc1 (stereo unspecified) | -0.0119 |
| COCc1cc(=O)n2[nH]c(C(F)(F)F)nc2n1 | -0.0087 |
| Cc1cc(C)n(CC(O)CN(c2ccccc2)S(=O)(=O)c2ccc3ccccc3c2)n1 (stereo unspecified) | -0.224 |
| CCOC(=O)C(CCC(=O)O)(CCC(C)C)c1csc(N)n1 (stereo unspecified) | 0.133 |
| O=C(Nc1ccc2c(c1)C(=O)N(CC1CCCO1)C2=O)c1ccc(Cl)c(Cl)c1 (stereo unspecified) | -0.194 |
| O=C(NNc1c2ccccc2nc2ccccc12)c1ccc(O)cc1 | 2.21 |
| COc1ccccc1OCc1ccc(C(=O)N2N=C(C(F)F)CC2(O)C(F)F)o1 (stereo unspecified) | -0.554 |
| Cc1ccccc1N1C(S)=C(C#N)C(=O)NC12CCCCC2 | 1.53 |
| Cc1ccc(C)c(N/C=C(\C#N)c2nc3ccccc3o2)c1 | 0.0427 |
| O=C(Cc1ccccc1)Nc1ccccc1C(=O)O | -1.27 |
| COc1ccc(C(=O)Cn2c(Br)nc3c2c(=O)n(C)c(=O)n3C)cc1OC | -0.137 |
| Cc1ccc2c(c1)c1c(n2CC(O)CN2C(=O)CNC2=O)C(=O)CCC1 (stereo unspecified) | 0.0317 |

| SMILES | z-score |
| --- | --- |
| COc1ccc(C)cc1S(=O)(=O)N(CC(=O)O)c1ccccc1 | 0.0223 |
| O=C(c1noc2c1CCCC2)N1CCN(Cc2ccccc2)CC1 | -0.175 |
| Cn1c(SCC(=O)N2CCN(c3ccccc3)CC2)nnc1-c1c[nH]c2ccccc12 | -0.513 |
| CC1(C)CC(=O)C(/C=N/c2ccccn2)=C(O)C1 | 0.439 |
| CCCOc1ccc2ccccc2c1/C=N/n1cnnc1 | -0.492 |
| CCOC(=O)C1=C(C)N=C2c3ccccc3C(=O)C2C1c1ccc(Cl)cc1 (stereo unspecified) | 0.0824 |
| Cc1ccccc1-c1nnc(SCc2ccccc2F)o1 | -0.891 |
| COC(=O)c1cc2ccsc2n1Cc1nc(-c2ccc(Cl)cc2)oc1C | 0.126 |
| O=C(NCCCN1CCc2ccccc2C1)Nc1ccc(Cl)cc1 | 0.384 |
| Cc1cccc(OCC(=O)Nc2cccc3nsnc23)c1 | 0.0699 |
| CC1(C)Cc2ccccc2-c2c1c(=O)n(-c1ccccc1)c1nnnn21 | 0.232 |
| CCCCCn1c(N2CCN(Cc3ccccc3)CC2)nc2c1c(=O)[nH]c(=O)n2C | -0.284 |
| Cc1[nH]c2ccccc2c1Cc1n[nH]c(=S)o1 | -0.396 |
| CSCCC(NC(=O)c1c(C)oc2c1CCCC2)C(=O)O (stereo unspecified) | -0.103 |
| CCOC(=O)C1C(=O)CC(C)(O)C(C(=O)OCC)C1c1ccc(OC)cc1 (stereo unspecified) | -0.0838 |
| CCCC1(C(=O)OCC)NC(c2ccc(OC)cc2OC)C2C(=O)N(c3ccccc3)C(=O)C21 (stereo unspecified) | 0.102 |
| Cc1cc(/C=N\NC(=O)CC(=O)NC2CCCCC2)c(C)n1-c1cccc(Cl)c1Cl | -0.438 |
| COc1ccccc1NC(=O)CCC(=O)O | 0.083 |
| CCOC(=O)c1cccc(NC(=O)c2cncc(Br)c2)c1 | -0.526 |
